Results on 30 molecules are retold here after PubChem BioAssay AID1645882 (National Center for Advancing Translational Sciences (NCATS), 2021).

Each structure is given as a SMILES string. Among all 16,000 compounds or so, about 120 (0.75%) were called active. Roughly 4% stayed inconclusive and do not appear here. Calls follow the shape of the dose curve; as a rule, active = well fitted inhibition curve with a large enough effect; inconclusive = small, poorly fitted or top-dose-only effect; inactive = no such curve, though single readings can be large or run the other way. Some of the results follow.

For the experiment, the target named is Rap guanine nucleotide exchange factor 3 (Homo sapiens) (UniProt O95398). Kind of experiment: Validation qHTS for antagonist of cAMP-regulated guanine nucleotide exchange factor 3 (EPAC1). Also: nearly all actives have a fitted effect of over 75% in size. Conditions: EPAC1 Rap1B-BODIPY-GDP exchange, fluorescence; series mostly up to 150 µM; activity change, negative = inhibition: at the top concentration. The text has this: Assay Provider (PI): Xiaodong Cheng Ph.D.
UniProt O95398, sequence (O95398 whole entry, looked up): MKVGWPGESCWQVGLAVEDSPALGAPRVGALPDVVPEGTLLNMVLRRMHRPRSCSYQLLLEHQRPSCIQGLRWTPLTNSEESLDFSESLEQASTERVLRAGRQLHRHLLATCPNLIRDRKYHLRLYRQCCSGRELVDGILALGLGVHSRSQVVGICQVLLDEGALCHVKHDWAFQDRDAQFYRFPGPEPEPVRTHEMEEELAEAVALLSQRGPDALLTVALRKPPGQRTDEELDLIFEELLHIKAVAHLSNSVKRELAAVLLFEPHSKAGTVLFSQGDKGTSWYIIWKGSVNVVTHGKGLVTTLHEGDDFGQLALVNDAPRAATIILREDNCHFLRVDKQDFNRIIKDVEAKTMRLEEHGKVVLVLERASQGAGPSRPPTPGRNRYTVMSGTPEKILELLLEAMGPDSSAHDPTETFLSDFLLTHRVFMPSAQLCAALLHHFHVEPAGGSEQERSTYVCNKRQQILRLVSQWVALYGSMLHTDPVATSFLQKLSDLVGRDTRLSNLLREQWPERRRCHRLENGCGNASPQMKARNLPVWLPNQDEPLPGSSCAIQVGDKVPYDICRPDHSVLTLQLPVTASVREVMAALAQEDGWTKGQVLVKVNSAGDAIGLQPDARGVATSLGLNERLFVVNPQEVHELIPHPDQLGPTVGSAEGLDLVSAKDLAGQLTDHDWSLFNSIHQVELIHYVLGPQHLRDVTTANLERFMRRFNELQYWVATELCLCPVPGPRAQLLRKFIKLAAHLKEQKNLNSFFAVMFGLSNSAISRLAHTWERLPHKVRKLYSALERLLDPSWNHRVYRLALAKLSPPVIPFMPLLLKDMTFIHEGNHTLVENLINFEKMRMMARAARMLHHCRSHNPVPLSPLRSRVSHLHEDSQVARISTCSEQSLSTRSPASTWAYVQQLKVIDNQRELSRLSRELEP
The University of Texas Medical Branch, […], TX
In multi-cellular eukaryotic organisms, the effects of cAMP are transduced by two ubiquitously-expressed intracellular cAMP receptors, the classic protein kinase A/cAMP-dependent protein kinase (PKA/cAPK) and the more recently discovered exchange protein directly activated by cAMP/cAMP-regulated guanine nucleotide exchange factor (EPAC/cAMP-GEF). Both PKA and EPAC are ubiquitously expressed in all tissues, and an increase in intracellular cAMP levels will lead to the activation of both PKA and EPAC. Therefore, careful dissections of the individual role and relative contribution of EPAC and PKA within the overall cAMP signaling in various model systems are critical for further elucidating the mechanism of cAMP signaling. To date no EPAC-specific antagonists and agonist, as well as isoform-specific agonists have been reported, and developing EPAC-specific pharmacological probes to determine the physiological functions that EPAC play in the overall cAMP-mediated signaling remains a major challenge within the research field. Furthermore, identified regulators of EPAC may lead to new mechanism-based therapeutic strategies specifically targeting the EPAC / cAMP-signaling components as EPAC has been implicated to play important roles in major human pathological conditions such as diabetes, heart disease, and cancer.
This qHTS will be used to screen the Molecular Libraries Small Molecule Repository (MLSMR) as a concentration-titration series using the NCGC unique quantitative screening (qHTS) platform to find activators for EPAC1. In addition, this assay will also be used as a counterscreen for the EPAC2 qHTS. This fluorescent based assay is developed and validated for EPAC1 that measures exchange using EPAC effector Rap1 complex with BODIPY-GDP, a GDP analog with a tethered fluorophores. Activators are identified by monitoring the change in fluorescence signal as the exchanged free BODIPY-GDP has a reduced fluorescence compared to Rap1-bound BODIPY-GDP. Increase in signal (activation) is the desired outcome for the EPAC1 agonist while no activity in this assay is desired for the EPAC2 agonist counterscreen.
[1] de Rooij, J., Zwartkruis, F. J., Verheijen, M. H., Cool, R. H., Nijman, S. M., Wittinghofer, A., and Bos, J.L. (1998) Nature 396, 474-477.
Briefly, three uL of reagents (100 nM EPAC1, 250 nM RAP1B-BODIPY-GDP, 50 uM GDP) were dispensed into a 1536-well Greiner black solid-bottom medium binding assay plate. Controls and test compounds (23 nL) were transferred to the plate via a Kalypsys pin tool equipped with a 1536-pin array. The plates were centrifuged at 1,000 rpm for 15 seconds followed by 5 minute incubation at room temperature. The assay plates were read at 5 minute intervals for 30 minutes in the ViewLux plate reader using 480nm excitation and 540nm emission filters. The results were normalized to the […] positive control ATA and DMSO.
As to `COc1ccc(SC[C@H](C)CN2CC[C@H](C)CCC2=O)cc1`, the “activity change, negative = inhibition” value was inactive: -14.2%. The figure for `C[C@H]1C[C@H]2[C@@H]3CCC4=CC(=O)C=C[C@]4(C)[C@@]3(Cl)[C@@H](O)C[C@]2(C)[C@@]1(O)C(=O)CO` is inactive: 11.5%; for `CCCCCC(N)=O` it is inactive: 1.91%. The figure for `CCCCCCCCN1[C@@H](CC(=O)O)c2cc(F)ccc2S1(=O)=O` is inactive: -5.5%; for `CN1CCC(CN2c3ccccc3Sc3ccccc32)C1` (stereo not given) it is inactive: 23.5%.

As to `Clc1ccccc1-c1cncnc1NCCN1CCOCC1`, the “activity change, negative = inhibition” value is inactive: 0.723%.

As to `CC(=O)c1ccc(F)c(-c2cc(C)cc3c2OC(CNC(=O)C(C)n2nc(C)cc2C)C3)c1` (stereo not given), the “activity change, negative = inhibition” value is inactive: 4.3%. Consider `Oc1ccc(O)cc1`, for which the activity change, negative = inhibition result is “inactive”.

With `CCNc1ncc2nc(CCc3ccccc3)c(=O)n(Cc3cccc(OC)c3)c2n1`, the “activity change, negative = inhibition” value is inactive: -5.72%. The figure for `COc1cc(C)c(CN2C[C@H](Sc3nc4ccccc4[nH]3)C[C@H]2C(=O)N(C)C)cc1C` is inactive: -5.59%; for `COCC(=O)N1CCC2(CC1)CN(Cc1cc(C(F)(F)F)cc(C(F)(F)F)c1)C2` it is inactive: -1.08%; for `CCC1COCCS(=O)(=O)N1Cc1ccc(Cl)cc1` (stereo not given) it is inactive: 14%. The figure for `O=C1CCN(Cc2ccccc2)CCN1CCSc1ccccc1` is inactive: 3.22%. The entry for `COc1cc2nc(N3CCN(C(=O)C4CCCO4)CC3)nc(N)c2cc1OC` (stereo not given) is “inactive”; for `O=P(O)(O)OCC(O)CO` (stereo not given) it is inactive: 20.3%.

As for `NCC1CCCCC1CC(=O)O` (stereo not given), the “activity change, negative = inhibition” value was inactive: -8.96%. The figure for `COC(=O)CCC[N+](C)(C)C` is inactive: 14%. In the case of `CC(=O)NCCNc1nc(-c2c(C)noc2C)nc2ccccc12`, the “activity change, negative = inhibition” value was inactive: 9.49%. The figure for `COc1cccc(C(=O)NCc2nc(-c3cccc(NC(=O)c4ccoc4C)c3)oc2C)c1OC` is inactive: -1.59%; for `O=C(NCC1(N2CCOCC2)CCCCCC1)c1cnn(-c2nccc(-c3ccco3)n2)c1C1CC1` it is inactive: 9.96%; for `COCCn1c(=O)c(-c2cn(C)c3ccccc23)nc2cnc(Oc3ccccc3)nc21` it is inactive: 17.5%. The figure for `Cn1cccc1C(=O)N1CCC2(CCCN(Cc3ccc(C#N)cc3)C2)CC1` is inactive: 7.69%; for `COC(=O)c1cc(CNC(=O)c2cccc(F)c2)cc(NC(=O)c2ccccc2OC)c1` it is inactive: -7.05%; for `O=C1NC(=O)C(Cc2ccccc2)(C2CCN(Cc3cccn3-c3cccnc3)CC2)N1` (stereo not given) it is inactive: 5.47%. The figure for `CCCc1cc(OC)c2c(c1)OCO2` is inactive: 0.634%.

With `COC(=O)C1CCN(Cc2ccc3c(c2)CN(C(=O)C2CCCN(c4ccccn4)C2)CCO3)CC1` (stereo not given), the “activity change, negative = inhibition” value is inactive: 12.7%. As for `N#Cc1cccc(-c2nc(N3CCNCC3)c3ccccc3n2)c1`, the “activity change, negative = inhibition” value was inactive: 7.76%.

Take `Clc1ccccc1-c1nc(Nc2ccncc2)c2ccccc2n1`: the “activity change, negative = inhibition” value is inactive: -3.65%. The figure for `OC[C@H]1O[C@@H](n2cnc3c(N[C@H]4C[C@H]5CC[C@@H]4C5)ncnc32)[C@H](O)[C@@H]1O` is inactive: 5.9%; for `O=C(c1cnccn1)N1CCC[C@@]2(CCN(c3ccccn3)C2)C1` it is inactive: 8.26%.
